In PubChem BioAssay (NCATS):
Several values for one entry are separate records, joined by “and”; a condition that tells them apart may be missing. Identical values can stand only once. The inconclusive results got no clear call from the source; some entries with a clear call stand among them for comparison. For part of these data: Where the call is inconclusive, the potency comes from a doubtful curve fit. For part of these data: “Side channel” marks fits to a control or component signal instead of the main read-out. Activity calls are given as the source filed them. Unless noted, calls follow the shape of the dose curve; as a rule, active = well fitted curve in the direction sought with a large enough effect; inconclusive = small, poorly fitted or top-dose-only effect, or another doubt; inactive = no such curve, though single readings can be large; an effect the other way counts as inactive or inconclusive.

Key:
[1] = Cell Viability - BJ (AID 421; calls by dose curve;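 also: potency is read from the fitted curve at half-maximal effect; cells exposed to compound for 40 hours at 37 °C before readout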); conditions: BJ fibroblast viability, qHTS
Method in brief: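 Cytotoxicity in human BJ foreskin fibroblasts is scored as loss of cellular ATP after a 40-hour exposure, measured by luciferase luminescence. Controls are DMSO and 100 uM tamoxifen.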

[2] = Cell Viability - NIH 3T3 (AID 541); conditions: NIH 3T3 cell viability, qHTS; activity change, negative = cytotoxicity: at 92.2 µM (top of the series);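 also: cells exposed to compound for 40 hours; plate controls were DMSO alone for no effect and tamoxifen positive control for full effect; nearly all actives have a fitted effect of over 25% in size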
Method in brief: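 In this cytotoxicity screen, acute toxicity is scored as an ATP drop measured by CellTiter-Glo in NIH 3T3 fibroblasts following a 40 hr, 37 °C incubation with compound.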

[3] = Cellular Toxicity (caspase-3) SHSY5Y (AID 657); conditions: SH-SY5Y caspase-3 activation; series mostly up to 91.7 µM;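 also: cells exposed to compound for 16 hours at 37 °C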
Method in brief: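 Cells plated and incubated 5 h at 37 °C, dosed over a concentration range, incubated 16 h, then given Caspase-Glo 3/7 reagent for 1 h at room temperature before luminescence reading. Staurosporine (10 uM) defined full stimulation.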

[4] = target: Peroxisome proliferator-activated receptor gamma (Homo sapiens) (UniProt P37231); assay: qHTS assay for small molecule antagonists of peroxisome proliferator-activated receptor gamma signaling (AID 588537; active = well fitted inhibition curve with a large enough effect in the signal ratio, with a control signal flat, not every such curve was filed as active; inconclusive = small, poorly fitted or top-dose-only effect, or effect the other way, or a change in a side signal; the % refers to the signal ratio;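 also: reporter cells co-stimulated with 50 nM rosiglitazone agonist during compound treatment; % of control where 0% means no effect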); conditions: HEK293 PPARg-UAS-bla, beta-lactamase ratio, antagonist mode; activity, negative = inhibition: at 76.8 µM (top of the series)
Method in brief: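 Cell-based beta-lactamase assay; GW9662 served as the antagonist control. Stimulation used rosiglitazone, final 50 nM, 16 h, 37 C.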

[5] = target: Thyroid hormone receptor beta (Homo sapiens) (UniProt P10828); assay: qHTS assay for small molecule antagonists of thyroid hormone receptor beta signaling (AID 588547; active = well fitted inhibition curve with a large enough effect in the signal ratio, with a control signal flat, not every such curve was filed as active; inconclusive = small, poorly fitted or top-dose-only effect, or effect the other way, or a change in a side signal; the % refers to the signal ratio;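 also: cells stimulated with 0.4 nM T3 agonist during compound exposure; % is scaled to controls: 0 for no effect and ±100 for the full control effect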); conditions: TR-UAS-bla HEK293, beta-lactamase ratio, antagonist mode, 18 h
Sequence of UniProt P10828 (P10828 whole entry, looked up): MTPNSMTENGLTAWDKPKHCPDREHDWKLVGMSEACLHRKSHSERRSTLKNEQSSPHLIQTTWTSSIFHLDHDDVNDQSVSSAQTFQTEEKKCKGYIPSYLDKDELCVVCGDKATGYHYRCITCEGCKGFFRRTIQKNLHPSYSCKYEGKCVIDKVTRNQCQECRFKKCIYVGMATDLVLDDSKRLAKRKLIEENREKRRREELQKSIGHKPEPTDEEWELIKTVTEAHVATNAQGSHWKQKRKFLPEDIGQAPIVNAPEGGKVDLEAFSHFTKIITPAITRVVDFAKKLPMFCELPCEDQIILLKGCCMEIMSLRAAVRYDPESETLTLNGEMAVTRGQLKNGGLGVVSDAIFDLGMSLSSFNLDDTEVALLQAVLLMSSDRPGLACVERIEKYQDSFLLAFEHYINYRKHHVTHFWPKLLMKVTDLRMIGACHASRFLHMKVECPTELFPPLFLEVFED
Method in brief: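 Inhibition of T3-driven (0.4nM final) beta-lactamase reporter activity was measured over 0.59 nM to 92 uM compound after 18 h at 37 C. The cells were GripTite HEK293 TR-UAS-bla in charcoal/dextran-stripped serum, with CCF4 ratio read-out and IC50 from Hill fits.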

[6] = qHTS assay for small molecule agonists of the antioxidant response element (ARE) signaling pathway (AID 651741; active = well fitted activation curve with a large enough effect in the signal ratio; inconclusive = small, poorly fitted or top-dose-only effect, or effect the other way, or a change in a side signal; the % refers to the signal ratio; also: potency is read from the fitted curve at half-maximal effect; as to activation: % of control where 0% means no effect); conditions: HepG2 ARE-bla reporter, beta-lactamase FRET ratio, 16 h; for Potency: activation: at 96 µM (top of the series) unless noted
Method in brief: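 Agonist activity is measured as ARE-driven beta-lactamase expression in a stable HepG2 reporter line, using 16 h compound treatment at 37 C and a FRET substrate fluorescence readout after 2 h.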

[7] = qHTS assay for small molecule disruptors of the mitochondrial membrane potential - 1 hr assay (AID 651754; calls by dose curve; also: % is scaled to controls: 0 for no effect and ±100 for the full control effect; nearly all actives have a fitted effect of over 35% in size); conditions: ratio change, negative = depolarisation: at 92.2 µM (top of the series)
Method in brief: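 In this qHTS format, a 1 hr compound treatment of HepG2 cells precedes Mito-MPS staining, and membrane potential is judged from aggregate (red) against monomer (green) fluorescence intensity.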

[8] = qHTS assay to identify small molecules that stimulate interleukin-8 (IL-8) secretion (AID 651758; active = well fitted activation curve with a large enough effect in the signal ratio; inconclusive = small, poorly fitted or top-dose-only effect, or effect the other way, or a change in a side signal; the % refers to the signal ratio; also: 0% is about no effect); conditions: HTRF ratio (665/615)
Method in brief: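 Secreted IL-8 measured homogeneously by TR-FRET (two labelled anti-IL-8 antibodies, 1-3 h at room temperature) after a 16 h, 37 C compound treatment of THP-1 cells at 2000 cells/well.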

[9] = target: Nuclear receptor ROR-gamma (Homo sapiens) (UniProt P51449); assay: qHTS assay for small molecule antagonists of the retinoid-related orphan receptor gamma (ROR-gamma) signaling pathway (AID 651802); conditions: ROR-gamma antagonist cell reporter assay; series mostly up to 92.2 µM;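 also: CHO cells with doxycycline-induced ROR-gamma expression; luciferase reporter luminescence driven by ROR response element; % is scaled to controls: 0 for no effect and ±100 for the full control effect; nearly all actives have a fitted effect of over 60% in size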
Sequence of UniProt P51449 (P51449 whole entry, looked up): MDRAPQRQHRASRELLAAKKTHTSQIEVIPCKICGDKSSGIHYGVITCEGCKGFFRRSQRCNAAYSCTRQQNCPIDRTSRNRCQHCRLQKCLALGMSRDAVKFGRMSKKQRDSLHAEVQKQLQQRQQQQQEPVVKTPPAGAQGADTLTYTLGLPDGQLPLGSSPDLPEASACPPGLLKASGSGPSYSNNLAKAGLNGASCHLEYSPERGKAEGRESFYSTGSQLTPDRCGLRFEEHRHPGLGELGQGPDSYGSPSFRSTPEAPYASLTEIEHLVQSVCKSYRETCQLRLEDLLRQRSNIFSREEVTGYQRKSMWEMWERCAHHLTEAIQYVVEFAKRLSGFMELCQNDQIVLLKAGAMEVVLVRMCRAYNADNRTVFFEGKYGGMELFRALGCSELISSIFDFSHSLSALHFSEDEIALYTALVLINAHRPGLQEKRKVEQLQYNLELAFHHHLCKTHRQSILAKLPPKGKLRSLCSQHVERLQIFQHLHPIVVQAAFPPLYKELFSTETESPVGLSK
Method in brief: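 Doxycycline-induced reporter activity in engineered CHO cells (TET-inducible ROR, RORE-LUC) was measured by luminescence after 16hr compound exposure at 37C.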

[10] = Cell Viability - Jurkat (AID 426;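 active = dose-dependent loss of cell ATP signal giving a full or clear fitted curve, ranked by lower potency value; inconclusive = weak partial curve or response only at the top dose; inactive = no loss of viability signal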;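 also: potency is read from the fitted curve at half-maximal effect; cells exposed to compound for 40 hours at 37 °C before ATP read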); conditions: qHTS
Method in brief: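 Cytotoxicity was scored as loss of cellular ATP, measured by luciferase-based luminescence, in Jurkat clone E6-1 cells after 40 h compound treatment; tamoxifen and doxorubicin served as positive controls.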

[11] = Cell Viability - HUV-EC-C (AID 542); conditions: HUV-EC-C endothelial cell viability, qHTS; series mostly up to 92.2 µM;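 also: cells exposed to compound for 40 hours; % is scaled to controls: 0 for no effect and ±100 for the full control effect; nearly all actives have a fitted effect of over 35% in size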
Method in brief: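 Concentration-dependent ATP loss in HUV-EC-C cells is the measure. Exposure lasts 40 hr at 37 °C; luminescence follows CellTiter-Glo addition, and Hill fits give AC50.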

[12] = MultiTox-Fluor Cytotoxicity Assay - LYMP1-002 - Live Cells (AID 955); conditions: LYMP1-002 lymphoblastoid live-cell protease fluorescence viability; series mostly up to 46.1 µM;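 also: cells exposed to compound for 16 hours; % is scaled to controls: 0 for no effect and ±100 for the full control effect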
Method in brief: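 In this qHTS viability format, lymphoblastoid cells (LYMP1-002, human) received compound for 16 hr at 37 C. Fluorogenic GF-AFC cleavage by viable cells was detected at 405/510 nm after 1 h at room temperature.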

[13] = Cell Viability - LYMP2-004 (AID 966); conditions: LYMP2-004 lymphoblastoid cell viability, qHTS; series mostly up to 92.2 µM;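 also: potency is read from the fitted curve at half-maximal effect; cells exposed to compound for 24 h; nearly all actives have a fitted effect of over 65% in size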
Method in brief: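 Viable-cell number estimated from ATP luminescence (CellTiter-Glo) in 2500 human lymphoblastoid cells/well after 24 hr at 37 C with compound. AC50 fitted to the standard Hill equation.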

[14] = Cell Viability - LYMP2-022 (AID 987); conditions: LYMP2-022 lymphoblastoid cell viability; series mostly up to 92.2 µM;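 also: 0% = DMSO alone and full effect = tetraoctylammonium bromide at 92 µM; nearly all actives have a fitted effect of over 55% in size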
Method in brief: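 In this qHTS cytotoxicity screen, compound titrations were incubated 24 hr at 37 C with human lymphoblastoid cells in complete medium. Luciferase-based ATP luminescence provided the viability signal.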

[15] = target: Estrogen receptor (Homo sapiens) (UniProt P03372); assay: qHTS assay for small molecule antagonists of estrogen receptor alpha signaling (AID 588513; active = well fitted curve in the direction sought with a large enough effect in the signal ratio, with a control signal flat, not every such curve was filed as active; inconclusive = small, poorly fitted or top-dose-only effect, or effect the other way, or a change in a side signal; inactive = no such curve, though single readings can be large or run the other way; the % refers to the signal ratio; also: % is scaled to controls: 0 for no effect and ±100 for the full control effect); conditions: ER-alpha-UAS-bla HEK293, beta-lactamase ratio, antagonist mode; activity, negative = inhibition: at 76.9 µM (top of the series) unless noted
Sequence of UniProt P03372 (P03372 whole entry, looked up): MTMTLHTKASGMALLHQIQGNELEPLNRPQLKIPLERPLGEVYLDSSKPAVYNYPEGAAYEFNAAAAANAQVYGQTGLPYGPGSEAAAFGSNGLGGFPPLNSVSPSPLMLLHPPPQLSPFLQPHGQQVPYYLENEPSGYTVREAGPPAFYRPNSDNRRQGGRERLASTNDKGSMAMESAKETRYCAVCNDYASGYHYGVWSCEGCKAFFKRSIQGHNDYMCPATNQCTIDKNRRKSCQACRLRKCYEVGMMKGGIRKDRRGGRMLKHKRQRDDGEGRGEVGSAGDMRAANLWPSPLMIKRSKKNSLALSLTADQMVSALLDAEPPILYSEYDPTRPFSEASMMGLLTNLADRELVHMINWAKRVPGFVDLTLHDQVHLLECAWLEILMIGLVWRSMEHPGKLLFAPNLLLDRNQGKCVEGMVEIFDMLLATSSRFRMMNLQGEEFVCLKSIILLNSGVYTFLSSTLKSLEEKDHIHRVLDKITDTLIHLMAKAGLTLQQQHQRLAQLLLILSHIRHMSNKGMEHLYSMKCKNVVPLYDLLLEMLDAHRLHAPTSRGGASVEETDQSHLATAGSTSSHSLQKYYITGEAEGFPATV
Method in brief: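 Cells were plated at 5000/well and incubated 4 h at 37 C. Compounds were added as 1:2 dilution series, duplicates. 17-beta-estradiol (0.5nM final) was added for 18 h before CCF4 detection.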

[16] = target: Glucocorticoid receptor (Homo sapiens) (UniProt P04150); assay: qHTS assay for small molecule agonists of glucocorticoid receptor signaling (AID 588532; active = well fitted curve in the direction sought with a large enough effect in the signal ratio, with a control signal flat; inconclusive = small, poorly fitted or top-dose-only effect, or a change in a side signal; inactive = no such curve, though single readings can be large or run the other way; the % refers to the signal ratio; also: potency is read from the fitted curve at half-maximal effect); conditions: HeLa MMTV-bla, beta-lactamase ratio, agonist, 18 h; activation: active compounds read high, percent of dexamethasone control, DMSO zero
Method in brief: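 Using MMTV-bla HeLa cells in medium with 1% stripped FBS and 25 mM HEPES, compounds were titrated and incubated overnight-length (18 h). Beta-lactamase cleavage of CCF4 was quantified by dual-emission fluorescence.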

[17] = target: Vitamin D3 receptor (Homo sapiens) (UniProt P11473); assay: qHTS assay for small molecule agonists of vitamin D receptor signaling (AID 588543; calls by dose curve; also: potency is read from the fitted curve at half-maximal effect); conditions: HEK293T VDR-UAS-bla, beta-lactamase ratio, 16 h; activation: at 76.8 µM (top of the series)
Method in brief: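 qHTS in agonist mode: compound titrations stimulate a VDR-driven β-lactamase reporter in HEK293T cells over 16 h at 37 °C. Response normalized to 50 nM 1α,25-dihydroxyvitamin D3 = 100%, DMSO = 0%; Hill fitting gives EC50 and maximal response.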

[18] = target: Retinoic acid receptor RXR-alpha (Homo sapiens) (UniProt P19793); assay: qHTS assay for small molecule agonists of retinoid X receptor alpha signaling (AID 588544; calls by dose curve;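 also: 0% = DMSO basal wells and 100% = reference agonist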); conditions: HEK293T RXRa-UAS-bla, beta-lactamase reporter, 18 h; activation: at 76.7 µM (top of the series) unless noted
Sequence of UniProt P19793 (P19793 whole entry, looked up): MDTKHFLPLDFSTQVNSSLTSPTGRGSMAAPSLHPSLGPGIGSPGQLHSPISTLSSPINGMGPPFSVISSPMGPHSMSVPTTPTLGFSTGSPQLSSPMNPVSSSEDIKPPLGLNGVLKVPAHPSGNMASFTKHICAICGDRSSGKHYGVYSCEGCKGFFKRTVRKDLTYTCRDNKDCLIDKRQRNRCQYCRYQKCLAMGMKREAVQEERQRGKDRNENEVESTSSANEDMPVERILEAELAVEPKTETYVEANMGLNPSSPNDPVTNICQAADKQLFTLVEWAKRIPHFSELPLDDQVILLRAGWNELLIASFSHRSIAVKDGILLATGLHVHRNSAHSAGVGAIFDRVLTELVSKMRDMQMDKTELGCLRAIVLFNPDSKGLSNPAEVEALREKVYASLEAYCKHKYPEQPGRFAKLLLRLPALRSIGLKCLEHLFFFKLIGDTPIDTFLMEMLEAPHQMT

[19] = target: Retinoic acid receptor RXR-alpha (Homo sapiens) (UniProt P19793); assay: qHTS assay for small molecule antagonists of retinoid X receptor alpha signaling (AID 588546; active = well fitted inhibition curve with a large enough effect in the signal ratio, with a control signal flat, not every such curve was filed as active; inconclusive = small, poorly fitted or top-dose-only effect, or effect the other way, or a change in a side signal; inactive = no such curve, though single readings can be large or run the other way; the % refers to the signal ratio; also: potency is read from the fitted curve at half-maximal effect;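 as to max response: cells stimulated with 9-cis-retinoic acid as agonist; % is scaled to controls: 0 for no effect and ±100 for the full control effect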); conditions: HEK293T RXRa-UAS-bla, beta-lactamase ratio, antagonist mode
Method in brief: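 Beta-lactamase reporter inhibition, read as CCF4 fluorescence ratio (ex 405, em 460/530 nm) after 2 h at RT. HEK293T UAS-bla cells, 2500/well, were stimulated with 9-cis-RA at 500 or 100 nM final alongside test compound for 18 h at 37 C.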

[20] = target: Tumor necrosis factor (Homo sapiens) (UniProt P01375); assay: qHTS assay to identify small molecules that stimulate Tumor Necrosis Factor-alpha (TNF-alpha) secretion (AID 651757; active = well fitted curve in the direction sought with a large enough effect in the signal ratio; inconclusive = small, poorly fitted or top-dose-only effect, or a change in a side signal; inactive = no such curve, though single readings can be large or run the other way; the % refers to the signal ratio; also: 0% is about no effect); conditions: Human cells, HTRF 665/615 ratio; activation (TNF-alpha secretion): at 92.2 µM (top of the series)
Sequence of UniProt P01375 (P01375 whole entry, looked up): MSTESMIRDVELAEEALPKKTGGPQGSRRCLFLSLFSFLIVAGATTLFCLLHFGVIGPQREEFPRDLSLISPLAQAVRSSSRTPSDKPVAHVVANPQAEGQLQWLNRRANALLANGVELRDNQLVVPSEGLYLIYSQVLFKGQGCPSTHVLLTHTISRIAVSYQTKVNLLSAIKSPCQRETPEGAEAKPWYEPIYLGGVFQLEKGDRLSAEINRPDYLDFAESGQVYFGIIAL
Method in brief: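 Using 3000 THP-1 cells per well, compounds and controls were applied for 17 hrs at 37 C. Detection followed with two labeled anti-TNF-alpha antibodies (cryptate donor, XL665 acceptor) for 3 hr at room temperature, measured by TR-FRET.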

[21] = activation: at 92.2 µM (top of the series)
Tags tell the direction and shape of the fitted curve or compound fluorescence and quenching.

c1ccc2ncccc2c1
inconclusive: activity, negative = inhibition [4] 8.13%
inactive: Potency [1] > 92 µM | activity change, negative = cytotoxicity [2] -0.00606% | Potency [3] | activity change % (negative = inhibition) [5] 3.38% | Potency [6] | Potency [7] | Potency [8, 21] | Potency [9]

CCC(O)OC(O)CC (configuration not stated)
inactive: Potency [10] > 92 µM | Potency [11] | Potency [12] | Potency [14] | Potency [20] | activation ([8]; at 92.2 µM (top of the series)) -9.46%
inconclusive: Potency [13] 50.1 µM [cytotoxic, partial curve, poor fit] | activity, negative = inhibition [15] 15.8% [at 2.03 mM] | Potency [16] 158 µM [side channel, rising, partial curve, poor fit] | activity, negative = inhibition [4] 7.22% | Potency [17] 0.01 µM [side channel, falling, full curve, poor fit] | activation [18] 21.1% [at 2.03 mM] | Potency [19] 1260 µM [activator, single point] | max response [19] -9.14% | Potency [6] 75 µM [activator, partial curve, poor fit] | activation ([6]; at 96 µM (top of the series)) 6.87% and 14.6% | activation ([6]; at 2.3 mM (top of the series)) -7.45% | activation [8, 21] -19.6%
